Measured values published in the supplement of paper PMC12217912.
The list shows a part of the results. Sequences were assembled here from the parent chain. Values near 0.05 are background.

B1: TEV protease; numbered along this chain (parent)
chain: MGESLFKGPRDYNPISSSICHLTNESDGHTTSLYGIGFGPFIITNKHLFRRNNGTLVVQSLHGVFKVKDTTTLQQHLVDGRDMIIIRMPKDFPPFPQKLKFREPQREERICLVTTNFQTKSMSSMVSDTSCTFPSGDGIFWKHWIQTKDGQCGSPLVSTRDGFIVGIHSASNFTNTNNYFTSVPKNFMELLTNQEAQQWVSGWRLNADSVLWGGHKVFMVKPEEPFQPVKEATQL

Variants of: B1
Test: raw area under fraction-flipped curve 0-4 h after induction (AUC4h, not background-subtracted), DNA-recorder readout of cleavage of the substrate (dimensionless); higher = more cleavage of the substrate by the protease variant
Settings: temperature: 34 °C; time window: 0-4 h after rhamnose induction
Experimental: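 In vivo DNA recorder in E. coli TOP10(DE3) ΔrhaA at 34 °C. Each TEVp single-site mutant (parent TEVp 0) is paired with a single-site variant of the 7-mer TEVs (canonical ENLYFQ|S). The substrate sits between flexible linkers in a Bxb1-sfGFP-TEVs-SsrA fusion, so cleavage stabilises Bxb1 and speeds flipping of a recombination array, read by NGS. The value is the raw area under the fraction-flipped curve over 0-4 h after rhamnose induction (AUC4h), with ≥20 reads per time point. It is not background-subtracted; inactive controls average about 0.047.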
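Further: Bxb1 expression induced with 0.2% (w/v) L-rhamnose at OD600 near 0.5, cultures sampled hourly, flipped fraction per protease–substrate barcode pair counted by paired-end Illumina sequencing.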

Variant	area with substrate CNLYFQS	area with substrate DNLYFQS	area with substrate GNLYFQS	area with substrate HNLYFQS	area with substrate INLYFQS	area with substrate MNLYFQS	area with substrate NNLYFQS	area with substrate TNLYFQS	area with substrate VNLYFQS	area with substrate WNLYFQS	area with substrate YNLYFQS	area with substrate FNLYFQS	area with substrate KNLYFQS	area with substrate PNLYFQS	area with substrate QNLYFQS	area with substrate LNLYFQS	area with substrate SNLYFQS	area with substrate RNLYFQS
MGESLFKGPRDYNPISSSICHLTNESDGHTTSLYGIGFGPFIITNKHLFRRNNGTLVVQSLHGVFKVKDTTTLQQHLVDGRDMIIIRMPKDFPPFPQKLKFREPQREERICLVTTNFQTKSMSSMVSDTSCTFPSGDGIFWKHWQQTKDGQCGSPLVSTRDGFIVGIHSASNFTNTNNYFTSVPKNFMELLTNQEAQQWVSGWRLNADSVLWGGHKVFMVKPEEPFQPVKEATQL [I145Q]	0.0455	0.0393	0.0529	0.0481	0.0659	0.0544	0.052	0.0571	0.0559	0.05	0.0442							
MGESLFKGPRDYNPISSSICHLTNESDGHTTSLYGIGFGPFIITNKHLFRRNNGTLVVQSLHGVFKVKDTTTLQQHLVDGRDMIIIRMPKDFPPFPQKLKFREPQREERICLVTTNFQTKSMSSMVSDTSCTFPSGDGIFWKHWIQTKVGQCGSPLVSTRDGFIVGIHSASNFTNTNNYFTSVPKNFMELLTNQEAQQWVSGWRLNADSVLWGGHKVFMVKPEEPFQPVKEATQL [D149V]	0.057	0.0716	0.0259	0.0282					0.0688	0.0657	0.0629	0.051	0.0624	0.0515				
MGESLFKGPRDYNPISSSICHLTNESDGHTTSLYGIGFGPFIITNKHLFRRNNGTLVVQSLHGVFKVKDTTTLQQHLVDGRDMIIIRMPKDFPPFPQKLKFREPQREERICLVTTNFQTKSMSSMVSDTSCTFPSGDGIFWKHWIQTKDGGCGSPLVSTRDGFIVGIHSASNFTNTNNYFTSVPKNFMELLTNQEAQQWVSGWRLNADSVLWGGHKVFMVKPEEPFQPVKEATQL [Q151G]	0.0691	0.0678	0.0636	0.0568	0.0751			0.0502		0.0495	0.0424	0.0425	0.0673	0.0586	0.0653			
MGESLFKGPRDYNPISSSICHLTNESDGHTTSLYGIGFGPFIITNKHLFRRNNGTLVVQSLHGVFKVKDTTTLQQHLVDGRDMIIIRMPKDFPPFPQKLKFREPQREERICLVTTNFQTKSMSSMVSDTSCTFPSGDGIFWKHWIQTWDGQCGSPLVSTRDGFIVGIHSASNFTNTNNYFTSVPKNFMELLTNQEAQQWVSGWRLNADSVLWGGHKVFMVKPEEPFQPVKEATQL [K148W]	0.0456	0.0821	0.0595	0.0452	0.0689		0.0565	0.0685	0.0538	0.0634	0.0548	0.0697	0.0817	0.0665	0.0586	0.0599	0.0602	
MGESLFKGPRDYNPISSSICHLTNESDGHTTSLYGIGFGPFIITNKHLFRRNNGTLVVQSLHGVFKVKDTTTLQQHLVDGRDMIIIRMPKDFPPFPQKLKFREPQREERICLVTTNFQTKSMSSMVSDTSCTFPSGDGIFWKHWIQGKDGQCGSPLVSTRDGFIVGIHSASNFTNTNNYFTSVPKNFMELLTNQEAQQWVSGWRLNADSVLWGGHKVFMVKPEEPFQPVKEATQL [T147G]	0.042	0.0641		0.0634	0.0587			0.0644		0.0595				0.053				
MGESLFKGPRDYNPISSSICHLTNESDGHTTSLYGIGFGPFIITNKHLFRRNNGTLVVQSLHGVFKVKDTTTLQQHLVDGRDMIIIRMPKDFPPFPQKLKFREPQREERICLVTTNFQTKSMSSMVSDTSCTFPSGDGIFWKHWIQPKDGQCGSPLVSTRDGFIVGIHSASNFTNTNNYFTSVPKNFMELLTNQEAQQWVSGWRLNADSVLWGGHKVFMVKPEEPFQPVKEATQL [T147P]	0.0571	0.067	0.0686	0.0592	0.0558	0.0822		0.0629		0.0553	0.0656	0.0669	0.0548	0.0644		0.0556	0.0591	0.0657
MGESLFKGPRDYNPISSSICHLTNESDGHTTSLYGIGFGPFIITNKHLFRRNNGTLVVQSLHGVFKVKDTTTLQQHLVDGRDMIIIRMPKDFPPFPQKLKFREPQREERICLVTTNFQTKSMSSMVSDTSCTFPSGDGIFWKHWIQWKDGQCGSPLVSTRDGFIVGIHSASNFTNTNNYFTSVPKNFMELLTNQEAQQWVSGWRLNADSVLWGGHKVFMVKPEEPFQPVKEATQL [T147W]	0.0472	0.0503		0.0639	0.0547		0.0647	0.0661	0.0877	0.0643	0.0609		0.0667			0.0677	0.0557	0.042
MGESLFKGPRDYNPISSSICHLTNESDGHTTSLYGIGFGPFIITNKHLFRRNNGTLVVQSLHGVFKVKDTTTLQQHLVDGRDMIIIRMPKDFPPFPQKLKFREPQREERICLVTTNFQTKSMSSMVSDTSCTFPSGDGIFWKHWIQIKDGQCGSPLVSTRDGFIVGIHSASNFTNTNNYFTSVPKNFMELLTNQEAQQWVSGWRLNADSVLWGGHKVFMVKPEEPFQPVKEATQL [T147I]	0.049	0.0577		0.0577	0.0605			0.0678	0.0536	0.0653		0.0589	0.069	0.0544		0.0472	0.0493	
MGESLFKGPRDYNPISSSICHLTNESDGHTTSLYGIGFGPFIITNKHLFRRNNGTLVVQSLHGVFKVKDTTTLQQHLVDGRDMIIIRMPKDFPPFPQKLKFREPQREERICLVTTNFQTKSMSSMVSDTSCTFPSGDGIFWKDWIQTKDGQCGSPLVSTRDGFIVGIHSASNFTNTNNYFTSVPKNFMELLTNQEAQQWVSGWRLNADSVLWGGHKVFMVKPEEPFQPVKEATQL [H143D]	0.0352	0.0583	0.0469	0.0566	0.068	0.0402		0.0613	0.0529	0.0482				0.0599			0.0639	0.0581
MGESLFKGPRDYNPISSSICHLTNESDGHTTSLYGIGFGPFIITNKHLFRRNNGTLVVQSLHGVFKVKDTTTLQQHLVDGRDMIIIRMPKDFPPFPQKLKFREPQREERICLVTTNFQTKSMSSMVSDTSCTFPSGDGIFWKHWIITKDGQCGSPLVSTRDGFIVGIHSASNFTNTNNYFTSVPKNFMELLTNQEAQQWVSGWRLNADSVLWGGHKVFMVKPEEPFQPVKEATQL [Q146I]	0.0767	0.0914	0.0618	0.0726			0.0717	0.034			0.0722		0.0576	0.0707	0.0703		0.0702	0.0554
MGESLFKGPRDYNPISSSICHLTNESDGHTTSLYGIGFGPFIITNKHLFRRNNGTLVVQSLHGVFKVKDTTTLQQHLVDGRDMIIIRMPKDFPPFPQKLKFREPQREERICLVTTNFQTKSMSSMVSDTSCTFPSGDGIFWKHWIQTKDGQCGFPLVSTRDGFIVGIHSASNFTNTNNYFTSVPKNFMELLTNQEAQQWVSGWRLNADSVLWGGHKVFMVKPEEPFQPVKEATQL [S154F]	0.0635	0.0693						0.0579			0.0563	0.0451			0.0446	0.0578		
MGESLFKGPRDYNPISSSICHLTNESDGHTTSLYGIGFGPFIITNKHLFRRNNGTLVVQSLHGVFKVKDTTTLQQHLVDGRDMIIIRMPKDFPPFPQKLKFREPQREERICLVTTNFQTKSMSSMVSDTSCTFPSGDGIFWKHWIQTKDGQCGCPLVSTRDGFIVGIHSASNFTNTNNYFTSVPKNFMELLTNQEAQQWVSGWRLNADSVLWGGHKVFMVKPEEPFQPVKEATQL [S154C]	0.0933	0.0711	0.0603	0.0458	0.0788	0.0568	0.0693	0.0348	0.0466	0.047	0.0604		0.0734	0.0747	0.0569	0.0616	0.0731	0.0708
MGESLFKGPRDYNPISSSICHLTNESDGHTTSLYGIGFGPFIITNKHLFRRNNGTLVVQSLHGVFKVKDTTTLQQHLVDGRDMIIIRMPKDFPPFPQKLKFREPQREERICLVTTNFQTKSMSSMVSDTSCTFPSGDGIFWKHWIQTKDGQCPSPLVSTRDGFIVGIHSASNFTNTNNYFTSVPKNFMELLTNQEAQQWVSGWRLNADSVLWGGHKVFMVKPEEPFQPVKEATQL [G153P]	0.0451	0.044	0.0482		0.0451	0.0404		0.0404	0.0421	0.045		0.0473	0.0447	0.0379			0.0499	0.0539
MGESLFKGPRDYNPISSSICHLTNESDGHTTSLYGIGFGPFIITNKHLFRRNNGTLVVQSLHGVFKVKDTTTLQQHLVDGRDMIIIRMPKDFPPFPQKLKFREPQREERICLVTTNFQTKSMSSMVSDTSCTFPSGDGIFWRHWIQTKDGQCGSPLVSTRDGFIVGIHSASNFTNTNNYFTSVPKNFMELLTNQEAQQWVSGWRLNADSVLWGGHKVFMVKPEEPFQPVKEATQL [K142R]	0.0372	0.0658	0.0769	0.0537	0.0597	0.0304		0.0635		0.0678			0.0632			0.0863	0.0575	0.0682
MGESLFKGPRDYNPISSSICHLTNESDGHTTSLYGIGFGPFIITNKHLFRRNNGTLVVQSLHGVFKVKDTTTLQQHLVDGRDMIIIRMPKDFPPFPQKLKFREPQREERICLVTTNFQTKSMSSMVSDTSCTFPSGDGIFWDHWIQTKDGQCGSPLVSTRDGFIVGIHSASNFTNTNNYFTSVPKNFMELLTNQEAQQWVSGWRLNADSVLWGGHKVFMVKPEEPFQPVKEATQL [K142D]	0.0728	0.0711	0.0729	0.0643	0.065		0.0826	0.0338		0.0642	0.059	0.0628	0.0762				0.0602	
MGESLFKGPRDYNPISSSICHLTNESDGHTTSLYGIGFGPFIITNKHLFRRNNGTLVVQSLHGVFKVKDTTTLQQHLVDGRDMIIIRMPKDFPPFPQKLKFREPQREERICLVTTNFQTKSMSSMVSDTSCTFPSGDGIFWPHWIQTKDGQCGSPLVSTRDGFIVGIHSASNFTNTNNYFTSVPKNFMELLTNQEAQQWVSGWRLNADSVLWGGHKVFMVKPEEPFQPVKEATQL [K142P]	0.0265	0.0716	0.0443	0.037	0.0618	0.0621		0.0552	0.0647	0.0566	0.0622			0.0502	0.0619	0.0522	0.062	0.0579
MGESLFKGPRDYNPISSSICHLTNESDGHTTSLYGIGFGPFIITNKHLFRRNNGTLVVQSLHGVFKVKDTTTLQQHLVDGRDMIIIRMPKDFPPFPQKLKFREPQREERICLVTTNFQTKSMSSMVSDTSCTFPSGDGIFWKHWIQTKDQQCGSPLVSTRDGFIVGIHSASNFTNTNNYFTSVPKNFMELLTNQEAQQWVSGWRLNADSVLWGGHKVFMVKPEEPFQPVKEATQL [G150Q]	0.0647	0.0493	0.071	0.0551			0.0594			0.0436	0.0652		0.0604	0.0627		0.0617	0.0694	
MGESLFKGPRDYNPISSSICHLTNESDGHTTSLYGIGFGPFIITNKHLFRRNNGTLVVQSLHGVFKVKDTTTLQQHLVDGRDMIIIRMPKDFPPFPQKLKFREPQREERICLVTTNFQTKSMSSMVSDTSCTFPSGDGIFWKHWIQTKDPQCGSPLVSTRDGFIVGIHSASNFTNTNNYFTSVPKNFMELLTNQEAQQWVSGWRLNADSVLWGGHKVFMVKPEEPFQPVKEATQL [G150P]	0.0576	0.0515	0.0537	0.0628	0.0604	0.0536	0.0569	0.0603	0.0662	0.0456		0.0544	0.0597	0.0605	0.0489	0.0672	0.0643	0.06
